{
  "source": "patent US20240209078A1",
  "about": "(Amgen, published 2024)",
  "experiment_in_all_cases": "cell-based or functional assay",
  "key": {"human MSLN": {"target": "human MSLN (human, UniProt Q13421 37-598)"}, "human CDH3": {"target": "human CDH3 (human, UniProt P22223 108-829)"}, "CD3ε chain [1]": {"target": "T1, CD3ε chain (human, UniProt P07766 23-126, limits assumed)"}, "CD3ε chain [2]": {"target": "T1, CD3ε chain", "T1 sequence (P07766 23-126 limits assumed)": "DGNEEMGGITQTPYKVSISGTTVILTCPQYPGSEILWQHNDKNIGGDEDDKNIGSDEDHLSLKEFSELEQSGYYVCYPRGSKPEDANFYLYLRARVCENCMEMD", "remark": "listed apart in the source"}, "[3]": {"target": "T2, human CDH3 (Cadherin-3, P-Cadherin) (human, UniProt P22223 108-829)"}, "human MSLN (mesothelin) [4]": {"target": "T3, human MSLN (mesothelin) (human, UniProt Q13421 37-598)"}, "[5]": {"target": "T2, human CDH3 (Cadherin-3, P-Cadherin)", "remark": "listed apart in the source"}, "human MSLN (mesothelin) [6]": {"target": "T3, human MSLN (mesothelin)", "remark": "listed apart in the source"}, "[7]": {"target": "T2, human CDH3 (Cadherin-3, P-Cadherin)", "remark": "listed apart in the source"}, "human MSLN (mesothelin) [8]": {"target": "T3, human MSLN (mesothelin)", "remark": "listed apart in the source"}},
  "note": "Like-named read-outs stand apart in the source and are kept apart here.",
  "data": [
    {"binder": "MS 01-G11 CC×6H10.09×(G4S)3×scFc×(G4S)3×CH3 005-D5 CC×6H10.09 (bispecific antibody) QVQLVESGGGLVKPGGSLRLSCAASGFTFSDYYMTWIRQAPGKCLEWLSYISSSGSTIYYAEAVKGRFTISRDNAKNSLFLQMNSLRAEDTAVYYCARDRNSHFDYWGQGTLVTVSSGGGGSGGGGSGGGGSDIMTQSPSSVSASVGDRVTITCRASQGIRTWLAWYQQKPGKAPKLLIYGASGLQSGVPSRFSGSGSGTDFTLTISSLQPEDFATYYCQQAESFPRTFGCGTKVEIKSGGGGSEVQLVESGGGLVQPGGSLKLSCAASGFTFNKYAMNWVRQAPGKGMEWVARIRSKYNNYATYYADAVKDRFTISRDDSKNTLYLQMNNLKTEDTAVYYCVRAGNFGSSYISYFAYWGQGTLVTVSSGGGGSGGGGSGGGGSQTVVTQEPSLTVSPGGTVTITCGSSTGAVTSGNYPNWIQKKPGQAPRGLIGGTKFLAPGTPARFSGSLEGGKAALTLSGVQPEDEAEYYCVLYYSNRWVFGSGTKLTVLGGGGSGGGGSGGGGS[sequence of human IgG1 Fc with R292C N297G V302C (EU numbers) omitted]GGGGSGGGGSGGGGSGGGGSGGGGSGGGGS[sequence of human IgG1 Fc with R292C N297G V302C (EU numbers) omitted]GGGGSGGGGSGGGGSEVQLLESGGGLVQPGGSLRLSCAASGFSFSSYPINWVRQAPGKCLEWVGVIWTGGGTNYASSVKGRFTISRDNSKNTVYLQMNSLRAEDTAVYYCAKSRGVYDFKGRGAMDYWGQGTLVTVSSGGGGSGGGGSGGGGSDIVMTQSPDSLAVSLGERATINCKSSQSLLYSSNQKNYFAWYQQKPGQPPKLLIYWASTRESGVPDRFSGSGSGTDFTLTISSLQAEDVAVYYCQQYYSYPYTFGCGTKLEIKSGGGGSEVQLVESGGGLVQPGGSLKLSCAASGFTFNKYAMNWVRQAPGKGMEWVARIRSKYNNYATYYADAVKDRFTISRDDSKNTLYLQMNNLKTEDTAVYYCVRAGNFGSSYISYFAYWGQGTLVTVSSGGGGSGGGGSGGGGSQTVVTQEPSLTVSPGGTVTITCGSSTGAVTSGNYPNWIQKKPGQAPRGLIGGTKFLAPGTPARFSGSLEGGKAALTLSGVQPEDEAEYYCVLYYSNRWVFGSGTKLTVL", "values": [
      {"measurement": "EC50 CHO hu CDH3 (+) & MSLN (+) (cytotoxicity)", "setting": "human MSLN", "result": 0.002, "unit": "pM"},
      {"measurement": "EC50 CHO hu MSLN (+) (cytotoxicity)", "setting": "human MSLN", "result": 2.05, "unit": "pM"},
      {"measurement": "EC50 CHO hu CDH3 (+) & MSLN (+) (cytotoxicity)", "setting": "human CDH3", "result": 0.002, "unit": "pM"},
      {"measurement": "EC50 CHO hu CDH3 (+) (cytotoxicity)", "setting": "human CDH3", "result": 1.9, "unit": "pM"},
      {"measurement": "fold gap, CHO hu CDH3 (+) against CHO hu CDH3 (+) & MSLN (+)", "setting": "human CDH3", "result": 779, "unit": "fold"}
    ]},
    {"binder": "CL1 9-G4 CC × 6H10.09 × scFc × FL 4-E9 CC × 6H10.09 (bispecific antibody) QVQLVQSGAEVKKPGASVKVSCKASGYTFTDYYMHWVRQAPGQCLEWMGWINPNSGGPNYAQKFQGRVTMTRDTSISTAHMELSRLRSDDTAVYYCAREKHAVAGIGFDYWGQGTLVTVSSGGGGSGGGGSGGGGSDIQMTQSPSSVSASVGDRVTITCQASQDISNYLNWYQQKPGKAPKLLIYAASSLESGVPSRFSGSGSGTDFTLTISSLQPEDFATYYCQQANSFPLTFGCGTKVDIKSGGGGSEVQLVESGGGLVQPGGSLKLSCAASGFTFNKYAMNWVRQAPGKGMEWVARIRSKYNNYATYYADAVKDRFTISRDDSKNTLYLQMNNLKTEDTAVYYCVRAGNFGSSYISYFAYWGQGTLVTVSSGGGGSGGGGSGGGGSQTVVTQEPSLTVSPGGTVTITCGSSTGAVTSGNYPNWIQKKPGQAPRGLIGGTKFLAPGTPARFSGSLEGGKAALTLSGVQPEDEAEYYCVLYYSNRWVFGSGTKLTVLGGGGSGGGGSGGGGS[sequence of human IgG1 Fc with R292C N297G V302C (EU numbers) omitted]GGGGSGGGGSGGGGSGGGGSGGGGSGGGGS[sequence of human IgG1 Fc with R292C N297G V302C (EU numbers) omitted]GGGGSGGGGSGGGGSQVTLKESGPTLVKPTETLTLTCTVSGFSFRNARMGVSWIRQPPGKCLEWLAHIFSNDEKSYSTSLKSRLTISKDTSKSQVVLTMTNMDPVDTATYFCARVPEYSSGWYRFDYWGQGTLVTVSSGGGGSGGGGSGGGGSDIQMTQSPSSLSASVGDRVTISCRASQSIRSYLNWYQQKPGKAPKLLIYATSSLQGGVPSRFSGSGSGTDFTLTISSLQPEDFATYYCQQSYSTPFTFGCGTKVEIKSGGGGSEVQLVESGGGLVQPGGSLKLSCAASGFTFNKYAMNWVRQAPGKGMEWVARIRSKYNNYATYYADAVKDRFTISRDDSKNTLYLQMNNLKTEDTAVYYCVRAGNFGSSYISYFAYWGQGTLVTVSSGGGGSGGGGSGGGGSQTVVTQEPSLTVSPGGTVTITCGSSTGAVTSGNYPNWIQKKPGQAPRGLIGGTKFLAPGTPARFSGSLEGGKAALTLSGVQPEDEAEYYCVLYYSNRWVFGSGTKLTVL", "values": [
      {"measurement": "Activity reduction of single CD3 binding domain in molecule compared to high affinity binding domain I2C with KD 1.2E-08M", "setting": "CD3ε chain [1]", "result": "~98", "unit": "fold"},
      {"measurement": "Activity reduction of single CD3-binding domain in molecule compared to high affinity CD3 binding domain I2C with KD of 1.2E-08M", "setting": "CD3ε chain [2]", "result": "~98", "unit": "fold"}
    ]},
    {"binder": "MS 15-B12 CC × I2L × G4 × scFc × G4 × CH3 15-E11 CC × I2L (bispecific antibody) QVQLQESGPGLVKPSETLSLTCTVSGGSISSSSYFWGWIRQPPGKCLEWIGNIYYSGSSNYNPSLKSRVTISVDTSKNQFSLKLSSVTAADTAVYYCARLPRGDRDAFDIWGQGTMVTVSSGGGGSGGGGSGGGGSDIVMTQSPSSLSASVGDRVTITCRASQGISNYLAWYQQKPGKVPKLLIYAASTLQSGVPSRFSGSGSGTDFTLTISSLQPEDFATYYCQQSYSTPFTFGCGTKVEIKSGGGGSEVQLVESGGGLVQPGGSLKLSCAASGFTFNKYAMNWVRQAPGKGMEWVARIRSKYNNYATYYADAVKDRFTISRDDSKNTLYLQMNNLKTEDTAVYYCVRAGNFGSSYISYFAYWGQGTLVTVSSGGGGSGGGGSGGGGSQTVVTQEPSLTVSPGGTVTITCGSSTGAVTSGNYPNWIQKKPGQAPRGLIGGTKFLAPGTPARFSGSLEGGKAALTLSGVQPEDEAEYYCVLYYSNRWVFGSGTKLTVLGGGG[sequence of human IgG1 Fc with R292C N297G V302C (EU numbers) omitted]GGGGSGGGGSGGGGSGGGGSGGGGSGGGGS[sequence of human IgG1 Fc with R292C N297G V302C (EU numbers) omitted]GGGGQVQLVQSGAEVKKPGASVKVSCKASGYTFTNYWMNWVRQAPGQCLEWMGNIAYGVKGTNYNQKFQGRVTMTVDTSSSTAYMELSRLRSDDTAVYYCATRYFYVMDYWGQGTLVTVSSGGGGSGGGGSGGGGSDIQMTQSPSSLSASVGDRVTITCRASQDISNYLNWYQQKPGKVPKLLIYYTSRLHSGVPSRFSGSGSGTDFTLTISSLQPEDVATYYCVQYAQFPLTFGCGTKVEIKSGGGGSEVQLVESGGGLVQPGGSLKLSCAASGFTFNKYAMNWVRQAPGKGMEWVARIRSKYNNYATYYADAVKDRFTISRDDSKNTLYLQMNNLKTEDTAVYYCVRAGNFGSSYISYFAYWGQGTLVTVSSGGGGSGGGGSGGGGSQTVVTQEPSLTVSPGGTVTITCGSSTGAVTSGNYPNWIQKKPGQAPRGLIGGTKFLAPGTPARFSGSLEGGKAALTLSGVQPEDEAEYYCVLYYSNRWVFGSGTKLTVL", "values": [
      {"measurement": "cytotoxicity EC50, HCT 116 KO MSLN cells", "setting": "[3]", "result": 1.1, "unit": "pM"},
      {"measurement": "cytotoxicity EC50, HCT 116 KO CDH3 cells", "setting": "human MSLN (mesothelin) [4]", "result": 18.3, "unit": "pM"},
      {"measurement": "cytotoxicity EC50, GSU KO MSLN cells", "setting": "[5]", "result": 256, "unit": "pM"},
      {"measurement": "cytotoxicity EC50, GSU KO CDH3 cells", "setting": "human MSLN (mesothelin) [6]", "result": 339, "unit": "pM"},
      {"measurement": "cytotoxicity EC50, GSU KO MSLN cells", "setting": "[7]", "result": 177, "unit": "pM"},
      {"measurement": "cytotoxicity EC50, GSU KO CDH3 cells", "setting": "human MSLN (mesothelin) [8]", "result": 289, "unit": "pM"}
    ]}
  ]
}
